Experimental data from paper PMC7819943, “Rice protein-binding microarrays: a tool to detect cis-acting elements near promoter regions in rice”.
The list shows a part of the results.

Target: T1, OsWOX13 (Oryza sativa, UniProt Q5QMM3 1-267)
T1 sequence: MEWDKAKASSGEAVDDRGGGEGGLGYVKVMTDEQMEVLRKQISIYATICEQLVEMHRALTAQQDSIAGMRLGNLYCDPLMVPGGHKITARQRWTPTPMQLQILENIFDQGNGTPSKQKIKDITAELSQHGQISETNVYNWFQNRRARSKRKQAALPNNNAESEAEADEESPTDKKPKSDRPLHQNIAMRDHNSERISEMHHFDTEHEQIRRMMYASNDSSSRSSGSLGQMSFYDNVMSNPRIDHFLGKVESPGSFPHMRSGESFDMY
Experiment: protein-binding microarray (RPBM); PBS, 2% BSA, 51.3 ng/ul salmon testes DNA, 50 uM zinc acetate, 200 nM TF, 25 C, 1 h; high values mean tight binding
Conditions: protein: recombinant; tags: N-terminal polyhistidine and DsRed monomer fusion (pET32a); label: CyDye5-dUTP incorporated in the synthesized complementary strand; 3' TTTTT single-stranded linker to array surface; dsDNA, one strand shown
How it was run: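 A custom Agilent array was converted to double-stranded form by primer extension with Cy5-dUTP and blocked with 2% BSA. Protein at 200 nM in PBS with 2% BSA, salmon testes DNA and 50 µM zinc acetate was applied for 1 h at 25 °C, followed by washing. The proteins were polyhistidine–DsRed N-terminal fusions of transcription factors, expressed in E. coli BL21-CodonPlus and Ni–NTA-purified. The binding signal is per-feature fluorescence intensity (arbitrary units) from an Axon 4000B scanner.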

Sequence | binding signal
CCTTAACAGCCACCTGCACGGCCCACGGTCGTCGTCGCCACGGAGTCACCTAGTGCAG | 4390 fluorescence intensity (a.u.)
GAATCTTGAAATTGAGCTGATTAATTTTCTTCTTGTTGAGCGGAGTCACCTAGTGCAG | 11800 fluorescence intensity (a.u.)
CATTTTGATTACTATGGTATAGGTGCCAACCGGTAATACCCGGAGTCACCTAGTGCAG | 7900 fluorescence intensity (a.u.)
TTAATTGGGTTTTACTTATTATAAACTTGAATAATGGATTCGGAGTCACCTAGTGCAG | 21300 fluorescence intensity (a.u.)
TGTACATCAATGGATTGGCATTAATTAGCATTTGGTTGGACGGAGTCACCTAGTGCAG | 28200 fluorescence intensity (a.u.)
CGTGTGATCCCCAATCACGCCCTCCTCAGGCGGACACGGTCGGAGTCACCTAGTGCAG | 5140 fluorescence intensity (a.u.)
ATCGAACTGTGAATAATAATTGATACCTGTCATATCCATCCGGAGTCACCTAGTGCAG | 8760 fluorescence intensity (a.u.)
TAAATTTTGATAATGTTAAAATTGTAGCAACAAACTAAACCGGAGTCACCTAGTGCAG | 3450 fluorescence intensity (a.u.)
CCCCATTAAACGGAAAATTAGGTGCCTGATGAATTTACATCGGAGTCACCTAGTGCAG | 10400 fluorescence intensity (a.u.)
TCTTAATTAGTAATATAACAGCCATTGTACATATAACCGGCGGAGTCACCTAGTGCAG | 32500 fluorescence intensity (a.u.)
AAAATTTTGCCCATCAACGAGAACTCAATAACGGGGCACTCGGAGTCACCTAGTGCAG | 5120 fluorescence intensity (a.u.)
TCAATGAATTGAAATGAAATTTAAGTATGCTTTGCTGCTGCGGAGTCACCTAGTGCAG | 11200 fluorescence intensity (a.u.)
GACGACGTTAATTAGTAATTACTCAACCATTACCATGTGCCGGAGTCACCTAGTGCAG | 37300 fluorescence intensity (a.u.)
ACAACATATAAATCAGTCTAAACTTATTTCGCACGTCAAGCGGAGTCACCTAGTGCAG | 4200 fluorescence intensity (a.u.)
GTGGACTGCAAATTAATTGTGTATAAGCAAGTCAACCGAGCGGAGTCACCTAGTGCAG | 23800 fluorescence intensity (a.u.)
AAGAAGATAAATAATCAATCAATGTCCAATAATCAATAGCCGGAGTCACCTAGTGCAG | 28700 fluorescence intensity (a.u.)
TGATGATTACATATTTTCCTCGGATTTTGATTCATCTGAACGGAGTCACCTAGTGCAG | 29000 fluorescence intensity (a.u.)
AAATTTATAATTTTACAATAAATTTGATATTAAATTTGTACGGAGTCACCTAGTGCAG | 12300 fluorescence intensity (a.u.)
TAATAATGTAAACTAATAACAAAACAAATTATAGGTTCCGCGGAGTCACCTAGTGCAG | 4540 fluorescence intensity (a.u.)
CCGTTGGATTGGAATCGGAGGGCCTACAATGACTGAGTGCCGGAGTCACCTAGTGCAG | 5860 fluorescence intensity (a.u.)
TGCATTGATGTCTGTGATTTACAAGTATGGAGATGAAAGGCGGAGTCACCTAGTGCAG | 10900 fluorescence intensity (a.u.)

Sequence | binding signal
ACTGATGAAGTTGTTTAGTTTATTATCATAGTTTACCACGCGGAGTCACCTAGTGCAG | 5400 fluorescence intensity (a.u.)
CTTGTTTGACTGACATATGGGTTCTGCATGTTTTGTTTTACGGAGTCACCTAGTGCAG | 9030 fluorescence intensity (a.u.)
CCAGATTATAATAATCCTAAGCTGAATCAAACATGGCCTACGGAGTCACCTAGTGCAG | 9510 fluorescence intensity (a.u.)
TTCGTAGAAATTCCGCTATCAAAGCTCGGCCAACACATAGCGGAGTCACCTAGTGCAG | 18000 fluorescence intensity (a.u.)
CTATCAATTATGATTACATTAAGTAAATGTAGATAAGGCCCGGAGTCACCTAGTGCAG | 45200 fluorescence intensity (a.u.)
GTCTAAATATTTGATGTGATAGGATGTAAAATTTTACCAACGGAGTCACCTAGTGCAG | 8970 fluorescence intensity (a.u.)
TGTAACTAATGAATTGATTAATGAGGAGAGGTGCTGATTGCGGAGTCACCTAGTGCAG | 38500 fluorescence intensity (a.u.)
GGGATTGGTTGAGAAAATAAAACAGATATATAAGTTTATCCGGAGTCACCTAGTGCAG | 3160 fluorescence intensity (a.u.)
TATATATAATGATGATTTAATGAAACTAATTTGATATTGTCGGAGTCACCTAGTGCAG | 20500 fluorescence intensity (a.u.)
CTATGACGTTTGTTTCTCGCTGATTATCTGCCATACAAATCGGAGTCACCTAGTGCAG | 3880 fluorescence intensity (a.u.)
TATTAAATTAGCTATAGATGTTTTGGAGTCAGTAGTTGGCCGGAGTCACCTAGTGCAG | 20700 fluorescence intensity (a.u.)
GCTAATTAATATGTTTTCACAAGTATTCTCTAACAAAGACCGGAGTCACCTAGTGCAG | 24900 fluorescence intensity (a.u.)
ATGATTAATCATAAGTGCTACAGTAACCCACATGTGCTAACGGAGTCACCTAGTGCAG | 20500 fluorescence intensity (a.u.)
GATGTGACTGAAAAGTTGTGTGTGTATGACAGGTACATGTCGGAGTCACCTAGTGCAG | 8110 fluorescence intensity (a.u.)
ATCTAGATGATTTTACTATTCTACCTTATTTTGTTCACAACGGAGTCACCTAGTGCAG | 4640 fluorescence intensity (a.u.)
AAACCGAGGTAAATTATGTCAATCATAATATTGGAACTAACGGAGTCACCTAGTGCAG | 22500 fluorescence intensity (a.u.)
CATACAGTGGTAAATTGGACTTCAACCATGCGCCCTGTTGCGGAGTCACCTAGTGCAG | 3380 fluorescence intensity (a.u.)
GTAAATTTGTGCTCAAAATGTACAGGAGTAGGGTTTTATGCGGAGTCACCTAGTGCAG | 11600 fluorescence intensity (a.u.)
AACAAATTAACTAGACTTTTCTCATCATCATCATCATCAGCGGAGTCACCTAGTGCAG | 20400 fluorescence intensity (a.u.)
AAACTAATTATACAGATTACGTGTAAATTGCGAGACGAATCGGAGTCACCTAGTGCAG | 42000 fluorescence intensity (a.u.)
TAGAGATTGGTATAAGCATGGAATACATTTACACCACGGCCGGAGTCACCTAGTGCAG | 6480 fluorescence intensity (a.u.)
